In the supplement of paper PMC3334620:
Whole data set: some 33,000 sequences, median “E-score (-0.5 to 0.5)” near -0.054, cut for the highest 2% near 0.39. The list shows a part of the results.

Target: Ylr278c (UniProt Q05854)
Assay: PBM E-score (8-mer binding enrichment) (E-score (-0.5 to 0.5)); higher = stronger / more preferred TF binding; most listed sequences are background and not binding sites
Settings: protein concentration: 200 nM; construct: GST-DNA-binding domain
Experimental: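 Universal 'all 10-mer' protein binding microarrays (Agilent AMADID 015681) probed with GST-tagged S. cerevisiae TFs (full-length or DBD) made by in vitro transcription/translation (PURExpress), about 100-200 nM. Bound TF was detected with fluorescent anti-GST. Each ungapped 8-mer (which stands for itself and its reverse complement) is scored by the PBM enrichment score (E-score), a modified Wilcoxon-Mann-Whitney statistic from -0.5 to +0.5, computed with the Universal PBM Analysis Suite. Scale: above 0.35 generally sequence-specific binding.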

| Sequence | PBM E-score |
| --- | --- |
| CATCCCGC | 0.167 |
| CAGACTCA | -0.242 |
| GTACACCA | -0.162 |
| ATACGAGG | -0.0907 |
| AGCCGCGA | 0.185 |
| GGACGATA | 0.0331 |
| CGTCGCGC | 0.103 |
| GATTCCGA | 0.413 |
| AAACTAGT | -0.125 |
| ATGAGCGC | -0.0209 |
| AAAGATTA | 0.159 |
| CGCTCTTC | -0.043 |
| GGACAGAA | 0.0642 |
| TCGCCTAA | -0.0503 |
| CCTAACAG | -0.13 |
| ACGTTATG | -0.0459 |
| CATGGCTA | -0.0652 |
| GCTTATTA | -0.101 |
| AACTCGAA | -0.11 |
| AGCTCATC | -0.0266 |
| CGCAGTAC | -0.23 |
| GACGGGCA | 0.0635 |
| CGTTCAAC | -0.0583 |
| CTTGCTGC | -0.271 |
| GATGCAAC | -0.0627 |

| Sequence | PBM E-score |
| --- | --- |
| CTAGATCA | -0.331 |
| ACCGTGAG | -0.0949 |
| TTAAGGAA | -0.0896 |
| ACACGAAG | 0.00792 |
| AGGAAAGG | -0.151 |
| GGAGACAC | 0.173 |
| CACTATAC | -0.219 |
| AATGTGTA | -0.196 |
| AGGGACGG | 0.00956 |
| CGCCGCGC | 0.287 |
| TATCGCAA | -0.0847 |
| CAGAAGCC | 0.0666 |
| GAGTGAAC | 0.00297 |
| ACTTAACA | -0.132 |
| AGCTCACG | -0.083 |
| ACAAAGCA | -0.0597 |
| CGCTACAC | 0.00231 |
| ATACCTGC | -0.213 |
| ATCGTAAT | -0.117 |
| AGCTAATG | -0.219 |
| CCATTCAA | -0.0303 |
| CGAGACAA | -0.0718 |
| ATGTTTTC | 0.116 |
| ATCAAATA | -0.0863 |
| GATGTGCA | -0.131 |

| Sequence | PBM E-score |
| --- | --- |
| ATGGTTGC | -0.23 |
| ATGACGTA | -0.2 |
| CAAGAACG | -0.0605 |
| ATCCTAAT | -0.1 |
| ACCCAGCA | -0.0981 |
| ATCATCTA | -0.112 |
| CCTTGTTC | -0.0785 |
| CACCCAGA | -0.18 |
| CATTGGCG | -0.191 |
| ATAGTGAC | -0.179 |
| GCAGCGAA | -0.163 |
| ATTCTAGG | -0.263 |
| AGGAACAG | -0.279 |
| CTACAGAC | -0.0911 |
| CCTAGGCC | 0.0534 |
| AGATTCAG | -0.142 |
| CAAAGGGG | -0.224 |
| AGCCAGCG | -0.159 |
| CGGAGTGA | 0.459 |
| ACTCTCCT | -0.0833 |
| AATGTCAG | -0.137 |
| CAAAGATC | -0.121 |
| ACTCTCTA | -0.335 |
| GCCGACGC | 0.33 |
| ACCGGCAA | 0.285 |

| Sequence | PBM E-score |
| --- | --- |
| GACGACAC | 0.0544 |
| AACAGCCG | 0.0132 |
| CAGATGAA | -0.107 |
| ACAGCATA | -0.047 |
| AGTTTACC | 0.067 |
| GCAGCGCA | -0.0397 |
| CTTTATCA | -0.215 |
| ATGCATCA | 0.0873 |
| AAACGCCC | 0.204 |
| CACAACTC | 0.0754 |
| CAAACAAG | 0.0172 |
| GCATCTCA | -0.235 |
| ATACAAGG | -0.1 |
| CTCCGGAG | 0.481 |
| ACATTGAG | -0.114 |
| GACTTAGA | -0.148 |
| CACCCTTC | -0.0372 |
| TTACATAA | -0.0071 |
| TCCGCGGA | 0.44 |
| CAACAAAA | -0.221 |
| AGGAAACG | -0.0963 |
| CCCGTAAC | 0.173 |
| TGAGGCAA | -0.214 |
| ACTCTATG | -0.148 |
| ACGGTCAG | -0.314 |

| Sequence | PBM E-score |
| --- | --- |
| ACTGTGAA | -0.185 |
| CACTTGCA | -0.186 |
| CAAGGCGA | -0.199 |
| GGTGAGAA | 0.052 |
| ACTCGATC | -0.0157 |
| CAGTTACG | -0.0458 |
| TCCAGAAA | -0.029 |
| ATGCTATC | -0.0946 |
| CTAAGTGA | -0.0496 |
| CGACCCAA | -0.118 |
| GAATTGTC | 0.0455 |
| ATCTGAGG | -0.11 |
| CTCCCGCC | 0.254 |
| AGCAGAGG | -0.143 |
| ACGTTCTC | -0.0461 |
| CGCTTCAC | -0.0767 |
| GGGGAACA | -0.0328 |
| ATACCCGA | 0.151 |
| AGAGTAGG | -0.0231 |
| ACTCTTGC | -0.131 |
| AGTCAAAT | -0.158 |
| ATGATAGG | -0.12 |
| AGGGTCCA | 0.00243 |
| GCATACGC | 0.127 |
| AGCAGTAA | -0.0545 |

| Sequence | PBM E-score |
| --- | --- |
| GTGGTTTA | 0.0618 |
| CAGAGCGA | 0.0392 |
| TTATTCAA | -0.0937 |
| AGGGGCGA | -0.0788 |
| CCTCGCAA | -0.0139 |
| GCGCGCCA | 0.161 |
| ACATCTAA | -0.148 |
| AACCCTCG | -0.0138 |
| AAGACAGT | -0.0351 |
| AGTAGAAG | -0.172 |
| ACAGGGGC | -0.0558 |
| CAGTGGTA | -0.305 |
| CCCCGAAC | 0.315 |
| GCACCCAC | -0.0269 |
| AATCTGGG | -0.158 |
| ATAAGCGG | 0.146 |
| AAGGGGAA | -0.236 |
| AGCTAGGA | -0.114 |
| AACAGACT | -0.132 |
| ACTAGGAT | -0.13 |
| CCCGTACC | 0.21 |
| AAACTGAG | -0.0407 |
| AACGATCA | -0.132 |
| CAGTTAGC | -0.102 |
| GTGGCCGA | 0.146 |

| Sequence | PBM E-score |
| --- | --- |
| AGCAGGAC | -0.0119 |
| GTGGATTA | 0.0111 |
| CACTCAGA | -0.152 |
| AGTATTTC | 0.123 |
| GATTCTCC | 0.22 |
| TATGTGGA | -0.0561 |
| ATGACCGG | 0.291 |
| CCCCTGAC | -0.01 |
| AAACTCGT | -0.202 |
| CCCTTCAA | -0.0436 |
| ACTCGAGC | -0.141 |
| TAGGAGAA | -0.134 |
| AAATCGGT | 0.148 |
| CTCCTCGC | -0.137 |
| AGCCGCTC | 0.151 |
| ATATGCGG | 0.234 |
| CAAGTACC | 0.0395 |
| ACGGAGTG | 0.401 |
| AGCGCCAT | -0.199 |
| AGATCCCT | -0.18 |
| AACTCTAG | -0.364 |
| AGGTCGGC | 0.114 |
| AGCCGCTG | -0.0241 |
| ACCCGTGA | -0.0929 |
| CACCTTCA | -0.104 |

| Sequence | PBM E-score |
| --- | --- |
| ACCACACC | 0.0111 |
| CTGCTAAC | -0.243 |
| AAGGAGGT | -0.0384 |
| GGGACCCC | -0.00447 |
| ACCATCCC | 0.0938 |
| CTTCCCTA | -0.0804 |
| ACTCCAAA | -0.118 |
| AGTTGCCA | -0.145 |
| CCTGTCGA | -0.217 |
| CTGGTAAC | -0.0766 |
| AAAATGAG | -0.0983 |
| CACAGGGG | -0.233 |
| CACTGTGC | -0.0342 |
| AATGACGG | 0.174 |
| TGCGAACA | 0.0112 |
| GGGGAAGA | -0.165 |
| ATCGCTAG | -0.114 |
| CTTAAAAC | 0.0315 |
| CATTAAAG | -0.175 |
| CGCCGGCG | 0.463 |
| CGCTAGAC | -0.186 |
| AATCGGGT | 0.176 |
| ACAACACC | -0.0493 |
| GTCTCGCA | -0.248 |
| GAAGTACC | 0.0915 |

| Sequence | PBM E-score |
| --- | --- |
| GGCCCCCC | -0.0188 |
| GAAATAGA | 0.00766 |
| CAGTCGTA | -0.156 |
| ACATAGGC | -0.00235 |
| CCGATGTA | 0.238 |
| CTTCTACC | -0.168 |
| ATAGCCAC | -0.15 |
| TATAGAAA | -0.181 |
| AAAGTACC | -0.0575 |
| AGACCGTC | -0.0135 |
| CCTCCGCG | 0.416 |
| GTTCGCAA | -0.0313 |
| AATATCAG | -0.154 |
| ACTATAGT | -0.0176 |
| CTGCGGGC | 0.276 |
| CTGCGGCC | 0.2 |
| GCGTCACC | -0.148 |
| CAGAAACG | 0.0223 |
| CTGAAATA | -0.122 |
